The list shows a part of the results. Single values are uncertain, as repeats are few or missing.
The compounds below were run on WM3526 (assay: cell count relative to DMSO control; melanoma cells; higher = more viable cells). Settings: library dose: standard library concentration; 72 h.
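Note: cells treated in 1,536-well plates, then fixed and DAPI-stained, with nuclei counted from automated high-throughput microscope images.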

SMILES	cell count [%]
N.N.[Cl][Pt][Cl] [cisplatin] + COc1cc(Nc2ncc(F)c(Nc3ccc4c(n3)NC(=O)C(C)(C)O4)n2)cc(OC)c1OC [Tamatinib] (first compound 8 µM, partner dose 2 µM)	60.2
C[C@]12O[C@H](C[C@]1(O)CO)n1c3ccccc3c3c4c(c5c6ccccc6n2c5c31)CNC4=O [Lestaurtinib] + Nc1ncn([C@H]2C[C@H](O)[C@@H](CO)O2)c(=O)n1 [decitabine] (first compound 0.02 µM, partner dose 0.5 µM)	76.5
C[As](C)SC[C@H](NC(=O)CC[C@H](N)C(=O)O)C(=O)NCC(=O)O [Darinaparsin] + CCc1ccc(CCOc2ccc(CC3SC(=O)NC3=O)cc2)nc1 [pioglitazone] (first compound 2 µM, partner dose 10 µM)	83.8
C[As](C)SC[C@H](NC(=O)CC[C@H](N)C(=O)O)C(=O)NCC(=O)O [Darinaparsin] + O=C1NC(=O)/C(=C/c2ccc(-c3ccc(F)cc3O)o2)S1 [AS252424] (first compound 2 µM, partner dose 5 µM)	73.2
C[C@]12O[C@H](C[C@]1(O)CO)n1c3ccccc3c3c4c(c5c6ccccc6n2c5c31)CNC4=O [Lestaurtinib] + COc1ccc(Cl)c(Nc2nc3ccccc3nc2NS(=O)(=O)c2cccc(NC(=O)C(C)(C)N)c2)c1 [XL147] (first compound 0.02 µM, partner dose 4 µM)	81.5
Cn1cc(C2=C(c3cn(C4CCN(Cc5ccccn5)CC4)c4ccccc34)C(=O)NC2=O)c2ccccc21 [Enzastaurin] + OCc1c[nH]c2ccccc12 [Indole-3-carbinol] (first compound 4 µM, partner dose 4 µM)	112

— the supplement of paper PMC4604168 (melanoma cell lines)
